According to PubChem BioAssay AID624417 (National Center for Advancing Translational Sciences (NCATS), 2012):
Where “and” joins values, the source holds several entries; their conditions need not be identical. Equal entries are not always repeated. Screen size: about 410,000 compounds; about 6,400 (1.6%) were called active. Inconclusive means that the source gave no clear call. Such entries were picked first, then a sample of the others. Calls come from the whole dose curve; as a rule, active = well fitted inhibition curve with a large enough effect; inconclusive = small, poorly fitted or top-dose-only effect; inactive = no such curve, though single readings can be large or run the other way. Potencies beside an inconclusive call are fits to weak or partial responses and may not hold up.

Target: Glucagon-like peptide 1 receptor (Homo sapiens) (UniProt P43220)
Test: qHTS of GLP-1 Receptor Inverse Agonists (Inhibition Mode); note: nearly all actives have a fitted effect of over 55% in size
Conditions: HEK293 GLP-1R CRE-luciferase, luminescence, 24 h, GLP-1R form is constitutively active; activity change, negative = inhibition: at 38.3 µM (top of the series) unless noted
Outline: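 Readout was luciferase luminescence, measured 12 min after detection reagent at room temperature. Beforehand, GLP-1R reporter HEK293 cells had sat 12 h, then received compounds for 24 hr at 37 deg C.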
% is set by controls: 0 for no effect and ±100 for the full control effect; potency is the fitted concentration of half-maximal effect; tags give direction and shape of the fitted curve.

Sequence of UniProt P43220 (P43220 whole entry, looked up): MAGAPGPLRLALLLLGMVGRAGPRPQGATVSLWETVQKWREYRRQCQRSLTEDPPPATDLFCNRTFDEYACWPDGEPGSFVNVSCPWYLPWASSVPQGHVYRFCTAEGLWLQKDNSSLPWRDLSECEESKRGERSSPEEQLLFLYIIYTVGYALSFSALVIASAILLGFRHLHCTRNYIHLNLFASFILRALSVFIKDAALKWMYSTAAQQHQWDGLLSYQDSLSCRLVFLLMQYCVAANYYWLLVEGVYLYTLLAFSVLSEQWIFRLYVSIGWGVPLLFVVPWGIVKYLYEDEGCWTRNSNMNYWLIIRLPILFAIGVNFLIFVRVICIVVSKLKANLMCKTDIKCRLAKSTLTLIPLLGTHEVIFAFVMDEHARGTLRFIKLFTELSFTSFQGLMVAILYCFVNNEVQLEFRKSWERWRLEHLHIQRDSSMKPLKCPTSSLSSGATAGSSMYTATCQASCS

Potency, inconclusive:
FC(F)(F)c1cc(-c2cccs2)nc(-n2cc(Cl)cn2)n1 28.2 µM [inhibitor, single point]
Cc1cccc(N2CCN(C(=O)C3CCN(S(=O)(=O)c4cccs4)CC3)CC2)c1C 10 µM [inhibitor, single point]
COc1ccc(NC(=O)N2CCN(c3nc4ccccc4n3C(C)C)CC2)cc1 3.55 µM [inhibitor, partial curve, poor fit]
CC12CC(c3ccccc3O1)N(C(=O)c1ccco1)C(=S)N2c1ccccc1 (stereo unspecified) 28.2 µM [inhibitor, single point]
FC(F)(F)c1cccc(Cc2noc(CN(Cc3ccccn3)CC3CCCO3)n2)c1 (stereo unspecified) 10 µM [inhibitor, partial curve, poor fit]
COc1cccc(CC(=O)OCC(=O)N(C)CC(=O)Nc2ccc(Cl)c(C(F)(F)F)c2)c1 28.2 µM [inhibitor, single point]
Cc1ccc(OCCn2cc(/C=C(\C#N)C(=O)NCC3CCCO3)c3ccccc32)cc1C (stereo unspecified) 22.4 µM [inhibitor, single point]
Cc1ccc(S(=O)(=O)Nc2ccc(Br)cc2C(NCC(=O)O)c2ccccc2)cc1 (stereo unspecified) 14.1 µM [inhibitor, partial curve, poor fit]
COc1cc(CNc2ncc(-c3ccc(Br)cc3)n2C)cc(OC)c1OC 10 µM [inhibitor, partial curve]
O=C(Cn1cnc(S(=O)(=O)N2CCCC2)c1)Nc1ccc(OC(F)(F)F)cc1 0.501 µM [inhibitor, full curve, poor fit]
CCc1ccc(NC(=O)c2cc3sc(Cl)cc3n2C)cc1 11.2 µM [inhibitor, partial curve, poor fit]
Clc1cccc(N2CCN(CCCN3CCN(c4ccccc4)CC3)CC2)c1 28.2 µM [inhibitor, single point]
Cc1sc2nc(C3CC3)nc(N3CCN(C(=O)c4ccccc4F)CC3)c2c1C 12.6 µM [inhibitor, single point]
O=C(c1cc(-c2ccc(Br)cc2)nc2ccccc12)N1CCC1 10 µM [inhibitor, partial curve, poor fit]
CC(C)Nc1nc(Nc2ccc(F)cc2)c2sccc2n1 28.2 µM [inhibitor, single point]
COc1ccc(NC(=O)CN2C(=O)NC3(CC(C)CC(C)(C)C3)C2=O)cc1S(=O)(=O)N1CCCCC1 (stereo unspecified) 28.2 µM [inhibitor, single point]
Cc1cc2occ(CC(=O)N(C)CC(=O)Nc3ccccc3Br)c2cc1C 28.2 µM [inhibitor, single point]
O=C(CSc1ccc(Cl)cc1)Nc1ccccc1N1CCN(C(=O)c2ccc(Cl)cc2)CC1 10 µM [inhibitor, single point]
Cc1ccc(C(=O)N2CCN(Cc3ccc4c(c3)OCO4)CC2)cc1C 28.2 µM [inhibitor, single point]
C(C#CCCCCCCCCC[n+]1ccccc1)#CCCCCCCCCC[n+]1ccccc1 7.94 µM [inhibitor, partial curve, poor fit] and 2.82 µM [inhibitor, partial curve, poor fit]
O=c1c2c3c(sc2nc(NCCO)n1-c1ccccc1)CCCC3 5.01 µM [inhibitor, full curve, poor fit]
CC(C)CNC(=O)NC(=O)COC(=O)c1cccc(NS(=O)(=O)c2ccc(F)c(F)c2)c1 3.98 µM [inhibitor, partial curve]
Cc1cccc(N2CCN(S(=O)(=O)c3ccc4c(c3)NC(=O)C(C)S4)CC2)c1C (stereo unspecified) 11.2 µM [inhibitor, partial curve, poor fit]
CN1C(=O)C(CC(=O)N2CCN(C(c3ccccc3)c3ccccc3)CC2)N(C)C1=O (stereo unspecified) 7.94 µM [inhibitor, partial curve, poor fit]
Oc1cccc(Nc2c3ccccc3nc3ccccc23)c1 28.2 µM [inhibitor, single point]
CCOc1ccc(CCN2C(=S)N([C@@H](Cc3ccc(O)cc3)CN3CCC[C@@H]3CN3C(=S)NC[C@@H]3Cc3ccc(O)cc3)C[C@@H]2Cc2ccc(O)cc2)cc1 28.2 µM [inhibitor, single point]
Cc1ccc(S(=O)(=O)N2CCOC2CNC(=O)C(=O)NCCc2ccccc2)cc1 (stereo unspecified) 6.31 µM [inhibitor, partial curve, poor fit]
CCC1CCCCN1CCCNC(=O)CSc1nc2nc(C)c(Cc3ccccc3Cl)c(C)n2n1 (stereo unspecified) 8.91 µM [inhibitor, partial curve]
COc1cccc(C(=O)Nc2c(C(=O)NC(C)(C)C)oc3ccccc23)c1 28.2 µM [inhibitor, single point]
COc1ccc(NC(=O)c2cc(C3CCCCN3C(=O)CCCc3ccccc3)on2)c(C)c1 (stereo unspecified) 28.2 µM [inhibitor, single point]
Cc1ccc(-n2nnc3c(SCC(=O)NCc4ccco4)ncnc32)cc1 10 µM [inhibitor, partial curve, poor fit]
CN(C)c1ccc(C(=O)c2ccc(N(C)C)c(N)c2)cc1N 7.08 µM [inhibitor, partial curve, poor fit]
O=C(c1ccc(Br)cc1)c1cc([N+](=O)[O-])ccc1N1CCCCC1 0.794 µM [inhibitor, full curve, poor fit]
O=C(CN1CCCCCC1)Nc1ccc(F)c(F)c1 10 µM [inhibitor, partial curve, poor fit]
Cc1cc(C)c2nc(N3CCC(C(=O)NCCCN4CC(C)CC(C)C4)CC3)sc2c1 (stereo unspecified) 28.2 µM [inhibitor, single point]
O=C(Oc1c(CN2CCOCC2)cc(Cl)c2cccnc12)c1ccccc1 3.16 µM [inhibitor, full curve, poor fit]
O=C(N/N=C/c1c(O)ccc2ccccc12)c1ccc(CO)nc1 4.47 µM [inhibitor, full curve, poor fit]
COc1ccccc1OCCNS(=O)(=O)c1ccc2oc3ccccc3c2c1 28.2 µM [inhibitor, single point]
CCC1CCCCN1CCCNC(=O)CN1C(=O)CSc2ccc(S(=O)(=O)N3CCC(C)CC3)cc21 (stereo unspecified) 11.2 µM [inhibitor, partial curve, poor fit]
CC[C@@]12C(=O)N(c3ccccc3)C(=O)N1[C@H](c1ccc(Br)cc1)[C@@H]1C(=O)N(C(C)(C)C)C(=O)[C@@H]12 7.94 µM [inhibitor, partial curve]
O=C(C1CCC(=O)N(C2CCCCCC2)C1)N1CCN(c2ccccc2Cl)CC1 (stereo unspecified) 28.2 µM [inhibitor, single point]
CC(NC(=O)Cc1ccc(-c2ccccc2)cc1)c1ccccc1 (stereo unspecified) 17.8 µM [inhibitor, partial curve, poor fit]
Clc1ccc2c(N/N=C/c3ccc(Br)cc3)ccnc2c1 8.91 µM [inhibitor, partial curve, poor fit]
Cc1ccc(S(=O)(=O)Nc2ccc3cc([N+](=O)[O-])ccc3c2[N+](=O)[O-])cc1 10 µM [inhibitor, partial curve, poor fit]
CCCNC(=O)c1ccc2c(=O)c(O)c(-c3ccc(C)cc3)[nH]c2c1 28.2 µM [inhibitor, single point]
CC(C)(C)OC(=O)CNC(=O)c1[nH]cnc1C(=O)N[C@@H](Cc1ccccc1)C(=O)OCc1ccccc1 25.1 µM [inhibitor, single point]

Potency, active:
NC(N)=N/N=C/c1ccc(OS(=O)(=O)c2ccccc2)cc1 6.31 µM

Activity change, negative = inhibition, inactive:
[N-]=C=C1C(=O)NC(=O)C([n+]2ccc(-c3ccncc3)cc2)C1c1ccccc1C(F)(F)F (stereo unspecified) 6.85%
COc1ccc2nc(Cl)c(C3CC(c4ccco4)=NN3C(=O)CCCC(=O)O)cc2c1 (stereo unspecified) 48.3%
CN(C)c1ncccc1-c1nc2ccccc2s1 7.31% [at 7.66 µM]
COc1ccc(CC(=O)NCc2ccc3c(c2)CCN3C(=O)c2ccc(C)cc2)cc1OC -6.18%
Cc1ccccc1CCN(CC(=O)NCc1ccc(F)cc1)C(=O)c1csnn1 -29.3%
CCc1cccc(NC(=O)Cn2c(=O)n(CCc3ccc(OC)c(OC)c3)c(=O)c3ccccc32)c1 -3.63%
OC[C@@H]1CN(Cc2cccs2)C[C@H](n2cnc3c(Nc4ccccc4)ncnc32)O1 -1.88%
O=C(O)c1ccc(NC(=O)c2cn(-c3ccccc3)nc2-c2ccc(F)cc2)cc1 4.06%
Cc1ccc(CNC(=O)Cn2ccn(-c3ccc(C)c(C)c3)c(=O)c2=O)cc1 -12.8%
COC(=O)c1ccccc1NC(=S)NC(=O)C1CC1 0%
Cc1cc2c(c3oc(=O)c4ccccc4c13)CN(Cc1ccc(F)cc1)CO2 -1.18%
CC1(c2ccccc2)NC(=O)N(CCOc2ccccc2)C1=O (stereo unspecified) -19.3%
CCCCOc1ccc(S(=O)(=O)N2CCN(c3ccccc3OCC)CC2)cc1 11.6%
COc1ccc(Cl)cc1NC(=O)CN(C)S(=O)(=O)c1ccc(Br)s1 -10.7%
